# This is one part of the list.
# B1: CBM13 2a (Mycobacterium tuberculosum), P64849 (protein)
# chain: DGPVQLKSRLGDVCLDAPSGSWFSPLVINPCNGTDFQRWNLTDDRQVESVAFPGECVNIGNALWARLQPCVNWISQHWTVQPDGLVKSDLDACLTVLGGPDPGTWVSTRWCDPNAPDQQWDSVPLEHHHHHH
# Tests used:
# Experiment in all cases: glycan array binding signal (z-score within array); higher = stronger binding
# Conditions in all cases: glycan notation: IUPAC condensed, linker removed
# [1] = target: Gal6S(b1-4)Glc6S
# How it was run: (§1)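 Arrays were curated from the Consortium for Functional Glycomics database, 3228 in total, and kept only where the protein sequence was available. Binding is expressed as a within-array Z-score. This score was averaged across arrays of the same protein sequence at different concentrations or buffers and across linkers, and negative values can be read as non-binding.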
# [2] = target: Gal6S(b1-4)GlcNAc
# How it was run: as §1
# [3] = target: Gal6S(b1-4)GlcNAc6S
# How it was run: as §1
# [4] = target: GalNAc(a1-3)Gal
# How it was run: as §1
# [5] = target: GalNAc(a1-3)GalNAc
# How it was run: as §1
# [6] = target: GalNAc(a1-3)GalNAc(a1-3)Gal(a1-4)Gal(b1-4)GlcNAc
# How it was run: as §1
# [7] = target: GalNAc(a1-3)GalNAc(b1-3)Gal(a1-4)Gal(b1-4)Glc
# How it was run: as §1
# [8] = target: GalNAc(b1-3)Gal
# How it was run: as §1
# [9] = target: GalNAc(b1-3)Gal(a1-4)Gal(b1-4)GlcNAc
# How it was run: as §1
# [10] = target: GalNAc(b1-3)Gal(a1-4)Gal(b1-4)GlcNAc(b1-3)Gal(b1-4)Glc
# How it was run: as §1
# [11] = target: GalNAc(b1-3)Gal(a1-6)Gal(b1-4)Glc
# How it was run: as §1
# [12] = target: GalNAc(b1-3)GalNAc
# How it was run: as §1
# [13] = target: GalNAc(b1-3)GlcNAc
# How it was run: as §1
# [14] = target: GalNAc(b1-4)Gal(b1-4)Glc
# How it was run: as §1
# [15] = target: GalNAc(b1-4)GlcNAc
# How it was run: as §1
# [16] = target: GalNAc(b1-4)GlcNAc(b1-2)Man
# How it was run: as §1
# [17] = target: GalNAc(b1-4)GlcNAc(b1-2)Man(a1-3)[GalNAc(b1-4)GlcNAc(b1-2)Man(a1-6)]Man(b1-4)GlcNAc(b1-4)GlcNAc
# How it was run: as §1
# [18] = target: GalNAc(b1-4)GlcNAc(b1-3)GalNAc(b1-4)GlcNAc
# How it was run: as §1
# [19] = target: GalNAc(b1-4)GlcNAc6S
# How it was run: as §1
# [20] = target: GalNAc(b1-6)GalNAc
# How it was run: as §1
# [21] = target: GalNAc3S(b1-4)GlcNAc
# How it was run: as §1
# [22] = target: GalNAc3S(b1-4)GlcNAc3S
# How it was run: as §1
# [23] = target: GalNAc3S(b1-4)[Fuc(a1-3)]GlcNAc
# How it was run: as §1
# [24] = target: GalNAc4S6S(b1-4)GlcNAc
# How it was run: as §1
# [25] = target: GalNAc6S(b1-4)GlcNAc
# How it was run: as §1
# [26] = target: Glc(a1-4)Glc
# How it was run: as §1
# [27] = target: Glc(a1-4)Glc(a1-4)Glc(a1-4)Glc
# How it was run: as §1
# [28] = target: Glc(a1-6)Glc(a1-6)Glc
# How it was run: as §1
# [29] = target: Glc(a1-6)Glc(a1-6)Glc(a1-6)Glc
# How it was run: as §1
# [30] = target: Glc(b1-4)Glc
# How it was run: as §1
# [31] = target: Glc(b1-6)Glc
# How it was run: as §1
# [32] = target: GlcA(b1-3)Gal
# How it was run: as §1
# [33] = target: GlcA(b1-3)GlcNAc
# How it was run: as §1
# [34] = target: GlcA(b1-6)Gal
# How it was run: as §1
# [35] = target: GlcA3S(b1-3)Gal(b1-4)GlcNAc(b1-2)Man
# How it was run: as §1
# [36] = target: GlcA3S(b1-3)Gal(b1-4)GlcNAc(b1-3)Gal(b1-4)Glc
# How it was run: as §1
# [37] = target: GlcNAc(a1-3)Gal(b1-4)GlcNAc
# How it was run: as §1
# [38] = target: GlcNAc(a1-4)Gal(b1-3)GlcNAc
# How it was run: as §1
# [39] = target: GlcNAc(a1-4)Gal(b1-4)GalNAc
# How it was run: as §1
# [40] = target: GlcNAc(a1-4)Gal(b1-4)GlcNAc
# How it was run: as §1
# [41] = target: GlcNAc(a1-4)Gal(b1-4)GlcNAc(b1-3)Gal(b1-4)Glc
# How it was run: as §1
# [42] = target: GlcNAc(a1-4)Gal(b1-4)GlcNAc(b1-3)Gal(b1-4)GlcNAc
# How it was run: as §1
# [43] = target: GlcNAc(a1-4)Gal(b1-4)GlcNAc(b1-3)Gal(b1-4)GlcNAc(b1-3)Gal(b1-4)GlcNAc
# How it was run: as §1
# [44] = target: GlcNAc(a1-4)Gal(b1-4)GlcNAc(b1-3)Gal(b1-4)[Fuc(a1-3)]GlcNAc(b1-3)Gal(b1-4)[Fuc(a1-3)]GlcNAc
# How it was run: as §1
# [45] = target: GlcNAc(a1-6)Gal(b1-4)GlcNAc
# How it was run: as §1
binder,measurement,setting,value
B1,glycan array binding signal (z-score),[1],-0.116
same,glycan array binding signal (z-score),[2],-0.173
same,glycan array binding signal (z-score),[3],-0.288
same,glycan array binding signal (z-score),[4],-0.304
same,glycan array binding signal (z-score),[5],-0.31
same,glycan array binding signal (z-score),[6],-0.375
same,glycan array binding signal (z-score),[7],-0.269
same,glycan array binding signal (z-score),[8],-0.289
same,glycan array binding signal (z-score),[9],-0.272
same,glycan array binding signal (z-score),[10],-0.325
same,glycan array binding signal (z-score),[11],-0.149
same,glycan array binding signal (z-score),[12],-0.167
same,glycan array binding signal (z-score),[13],-0.328
same,glycan array binding signal (z-score),[14],-0.069
same,glycan array binding signal (z-score),[15],-0.323
same,glycan array binding signal (z-score),[16],-0.419
same,glycan array binding signal (z-score),[17],0.805
same,glycan array binding signal (z-score),[18],-0.341
same,glycan array binding signal (z-score),[19],-0.357
same,glycan array binding signal (z-score),[20],-0.3
same,glycan array binding signal (z-score),[21],-0.336
same,glycan array binding signal (z-score),[22],-0.049
same,glycan array binding signal (z-score),[23],-0.251
same,glycan array binding signal (z-score),[24],-0.081
same,glycan array binding signal (z-score),[25],-0.099
same,glycan array binding signal (z-score),[26],-0.098
same,glycan array binding signal (z-score),[27],-0.131
same,glycan array binding signal (z-score),[28],-0.174
same,glycan array binding signal (z-score),[29],0.041
same,glycan array binding signal (z-score),[30],-0.021
same,glycan array binding signal (z-score),[31],-0.057
same,glycan array binding signal (z-score),[32],-0.204
same,glycan array binding signal (z-score),[33],-0.329
same,glycan array binding signal (z-score),[34],0
same,glycan array binding signal (z-score),[35],-0.242
same,glycan array binding signal (z-score),[36],-0.122
same,glycan array binding signal (z-score),[37],-0.365
same,glycan array binding signal (z-score),[38],-0.306
same,glycan array binding signal (z-score),[39],-0.227
same,glycan array binding signal (z-score),[40],-0.181
same,glycan array binding signal (z-score),[41],-0.311
same,glycan array binding signal (z-score),[42],-0.295
same,glycan array binding signal (z-score),[43],-0.179
same,glycan array binding signal (z-score),[44],0.043
same,glycan array binding signal (z-score),[45],-0.319
